Over roughly 5,400 compounds, “IFI” has its median near 2; the highest 2% begin near 22. The list shows a part of the results.

The values below come from ChEMBL document CHEMBL1156829.

This test in a line: NOVARTIS: Inhibition Frequency Index (IFI) - the number of HTS assays where a compound showed > 50% inhibition/induction, expressed as a percentage of the number of assays in which the compound was tested. Format: functional.
`COC(=O)c1c(-c2ccccc2Cl)csc1N` had an IFI of 0%.
Compound `Nc1nc(Cl)nc2ccccc12` showed an IFI of 0.625%.
`Cc1ccc(-c2nnc(SCCCC(=O)NC(Cc3ccccc3)c3ccccc3)n2-c2cccc(Cl)c2)cc1` (stereo not given) came in with an IFI of 4.21%.
As to `Cc1cccc(N(C)c2nc3ccccc3c3nnc(C)n23)c1`, the IFI came out at 0%.
The compound `CCCCn1c(=N)n(CC(O)c2ccc(Br)cc2)c2ccccc21` (stereo not given) showed an IFI of 6.25%.
Compound `CCN(CC)CCNc1nc2cc(OC)c(OC)cc2c2nc(-c3ccccc3)nn12` displayed an IFI of 6.82%.
As to `CCCCCCCSc1nsc(NC(=O)CCC)n1`, the IFI is 3.66%.
The compound `Cc1c[n+](Cc2ccccc2)ccc1/C=C/c1ccccc1` gave an IFI of 7.14%.
Regarding `Nc1ccc(-c2nc3cc(Oc4ccc(Oc5ccc6[nH]c(-c7ccc(N)cc7)nc6c5)cc4)ccc3[nH]2)cc1`, the IFI turned out to be 5.8%.
Turning to `CCc1ccc(NC(=O)CSc2nc(C)cc(C)c2C#N)cc1`, the IFI came out at 3.7%.
Compound `OCCCCCCCCCCC[n+]1ccccc1` displayed an IFI of 1.22%.
Compound `Cc1cc2cc(C3C(C#N)=C(N)Oc4c3ccc3ccccc43)c(Cl)nc2cc1Cl` (stereo not given) yielded an IFI of 5.1%.
In turn, `COc1ccc2c(c1)C(=NN=C(N)N)c1cc(OC)ccc1-2` gave an IFI of 7.69%.
In turn, `CCOc1ccc2[nH]c3c(NCCCN4CCOCC4)ncnc3c2c1` registered an IFI of 4.76%.
With `c1ccc(-c2cc(N3CCOCC3)nc(-c3ccccn3)n2)nc1` the figure was 15.4%.
With `CC(=O)OCN1C(=O)N(COC(C)=O)C2C1N(COC(C)=O)C(=O)N2COC(C)=O` (stereo not given) the figure was 1.14%.
With `Cc1ccc(C#N)c(SCc2nnc(-c3ccc(Cl)cc3)o2)n1`, the IFI is 0%.
The compound `CC(=O)Nn1c(C(C)(C)C)nc2ccccc2c1=O` returned an IFI of 0%.
`O=C(Nc1ccccc1C(=O)O)c1cccc(NC(=O)c2ccco2)c1` gave an IFI of 7.69%.
Regarding `CCCNC1=C(N(C(C)=O)c2ccc(C)cc2)C(=O)c2ccccc2C1=O`, the IFI came out at 18.4%.
With `COc1ccc(C2Sc3ccccc3N=C3C2=C(O)c2ccccc23)cc1` (stereo not given) the figure was 0%.
In the case of `CCOc1ccc2[nH]c(=O)c(CN(CCN3CCCC3)C(=S)Nc3ccc(F)cc3)cc2c1`, the IFI was 3.36%.
For the compound `O=c1c2c([nH]c3ccccc13)CCCC2`, the IFI came to 2.16%.
`Cc1ccc(S(=O)(=O)c2c(COC(=O)c3cccc(C)c3)c(-c3ccccc3)nn2C)cc1` had an IFI of 3.9%.
For `CN(C)CCCNc1ncc(C(=O)NCCc2ccccc2)c(NCC2CCCCC2)n1`, the IFI came to 0.971%.
`CCOC(=O)c1cnc2cc(OCC3CC3)c(OCC3CC3)cc2c1O` came in with an IFI of 0.862%.
As for `O=S(=O)(ON=C1CCCc2sc(Cl)cc21)c1ccccc1`, the IFI stood at 2.24%.
The result for `O=C(CSc1nc2ccccc2[nH]1)Nc1ccc(Cl)cc1Cl` reads 0%; that for `COc1ccc(N2C(N)=NC(N)=NC23CCCC3)cc1`, 0%.
On to `O=C1NC(=O)C(Cc2ccc(S(=O)(=O)N3CCN(c4ccccc4)CC3)cc2)S1` (stereo not given), for which the IFI stood at 1.24%.
The compound `COc1ccc(NC(=O)N(CCCNS(=O)(=O)c2ccc([N+](=O)[O-])cc2)c2ccc(Oc3ccccc3)cc2)cc1` came in with an IFI of 0.901%.
With `CC[n+]1c(C)n(-c2ccccc2)c2ccc(C3Nc4ccccc4S3)cc21` (stereo not given) the figure was 3.17%; with `CCN(C(=O)Cn1c(=O)oc2ccccc21)c1ccc(F)cc1`, 0%.
With `COc1ccc(C(=O)C(CCC(CNC(C)(C)C)C(=O)c2ccc(OC)cc2)CNC(C)(C)C)cc1` (stereo not given) the figure was 7.14%; with `CCOC(=O)C1=C(N)N(c2cccc([N+](=O)[O-])c2)C2=C(C(=O)CC(C)(C)C2)C1c1ccc(Br)cc1` (stereo not given), 0%; with `CCCCN(CCCC)CC(O)c1cc(Cl)cc2c1-c1ccc(Cl)cc1/C2=C/c1ccc(Cl)cc1` (stereo not given), 1.45%.
The compound `O=C(NC1CCN(CC(O)CN(Cc2ccccc2)S(=O)(=O)c2ccccc2)C1)c1cccc2ccccc12` (stereo not given) returned an IFI of 2.97%.
`O=C(C1CCN(c2cccc3c2C(=O)N(C2CC2)C3=O)CC1)N1CCC(O)(c2ccc(Cl)cc2)CC1`: the IFI turned out to be 8.82%.
Consider `CCC[P+](CCC)(CCC)CC1OCc2ccccc2CO1`, for which the IFI came to 3.7%.
The result for `NCC(=O)N1CCn2c(nc(-c3ccccc3)c2Nc2ccc3c(c2)OCO3)C1` reads 4.17%.
For the compound `CC(C)Nc1nc(-c2cccnc2)nc2ccccc12`, the IFI is 0%.
`C[N+]1(CCOC(=O)CCC(=O)OCC[N+]2(C)CCCCCC2)CCCCCC1` registered an IFI of 3.45%.
As for `CCC(c1ccc(F)cc1)n1cc(C(=O)NCCCN2CCC(C)CC2)nn1` (stereo not given), the IFI came out at 0%.
The result for `COc1cccc(NC(=O)c2cccc3c(=O)c4c([nH]c23)CCCC4)c1` reads 0%; that for `Cc1cc(Nc2ccccc2)nc(Nc2ccccc2)n1`, 2.98%; that for `CCOc1cccc2c1N(C(=O)c1ccc(C)cc1)C(C)(C)C1=C2C2(SC(C(=O)OC)=C(C(=O)OC)S2)C(C(=O)OC)=C(C(=O)OC)S1`, 0%.
Compound `COc1ccc(C2CC(=O)C3=C(C2)NC(C)=C(C(=O)OC2CCCC2)C3c2cccc(C)c2)cc1OC` (stereo not given) returned an IFI of 10.7%.
Compound `O=C(Nc1ccc(-c2noc(CCc3ccccc3)n2)cc1)c1cccs1` gave an IFI of 4.54%.
As to `CCOc1cc(C2CC(=O)NC3=C2C(=O)CC(c2ccc(OC)c(OC)c2)C3)ccc1O` (stereo not given), the IFI turned out to be 0%.
In the case of `CCOC(=O)c1sc2ncnc(NCc3ccc(F)cc3)c2c1C`, the IFI came to 4.71%.
In turn, `CC(C)=CCC/C(C)=C/CCC(C)NCCN1CCNCC1` (stereo not given) registered an IFI of 3.33%.
`COc1ccccc1/C=C/CN1CCN(c2ccccn2)CC1` gave an IFI of 0%.
With `Cc1ccc(S(=O)(=O)Nn2c(SCC(=O)NCCc3ccc(S(N)(=O)=O)cc3)nc3ccccc3c2=O)cc1`, the IFI turned out to be 0%.
The compound `Nc1nc(N)c2cc(S(=O)(=O)N3CCCCC3)ccc2n1` displayed an IFI of 16.4%.
With `COC(=O)C(C)NC(=O)c1ccc(F)cc1` (stereo not given), the IFI worked out at 0%.
`COc1cc(-c2nc(-c3ccc(C)c(C)c3)c(-c3ccc(C)c(C)c3)[nH]2)cc(OC)c1O` returned an IFI of 8.79%.
With `COCCN(C)C(=O)COC(c1cccs1)c1cccnc1Cl` (stereo not given) the figure was 2.91%; with `CC(C)CNC(=O)c1ccc(OC2CCN(CC3CCCCC3)CC2)c(Cl)c1`, 2.78%.
Turning to `CN(CCCNc1ccnc2cc(Cl)ccc12)C(=O)COc1ccc(Cl)cc1`, the IFI stood at 1.87%.
As to `CCN1/C(=C/c2sc3cc(OC)c(OC)cc3[n+]2CC)C=Cc2ccccc21`, the IFI was found to be 23.1%.
The result for `CCOc1ccc2nc3cc(NC(=O)c4ccc(C)cc4)ccc3c(N)c2c1` reads 0%; that for `CC1CN(C(=O)C(Cl)(Cl)Cl)C(C)CN1C(=O)C(Cl)(Cl)Cl` (stereo not given), 0%.
With `Cc1cc(C)nc(NNc2c([N+](=O)[O-])cccc2[N+](=O)[O-])n1` the figure was 0%; with `COc1cc(NC(=O)C(F)(F)F)c(C(=O)c2ccc(C(F)(F)F)cc2)cc1OC`, 1.96%.
In turn, `CCN1C(=O)NC(c2cccc(NC(=O)Nc3cc(C(F)(F)F)cc(C(F)(F)F)c3)c2)C(C(=O)OC(C)C)=C1C` (stereo not given) returned an IFI of 6.45%.
The compound `COc1ccc([N+](=O)[O-])cc1-c1ccc(/C=C(\C#N)c2nn(CCO)c(N)c2C#N)o1` gave an IFI of 1.61%.
In turn, `CCC(c1nc2ccccc2c(=O)n1-c1ccc(F)c(Cl)c1)N(CCc1ccccc1)C(=O)COc1ccc(Cl)cc1` (stereo not given) displayed an IFI of 2.83%.
As to `N#C/C(=C\c1ccccc1OCc1ccc(Cl)cc1Cl)c1nc2ccccc2[nH]1`, the IFI stood at 9.23%.
Turning to `N=c1c2ccccc2nnn1-c1cccc(C(F)(F)F)c1`, the IFI stood at 2.53%.
`COc1cccc(C(C(=O)NC2CCCCC2)N(C(=O)c2snc(C(N)=O)c2N)c2ccc(C)cc2)c1OC` (stereo not given) returned an IFI of 3.7%.
On to `CCCCCCCn1c2c(c(=N)c3c1CCC3)CCCC2`, for which the IFI came out at 14.3%.
As to `CN(Cc1ccccc1)CC(O)COc1ccc(CNCCCN2CCCC2)cc1` (stereo not given), the IFI came to 7.69%.
In turn, `CC1CCC(C(C)C)C(OC(=O)Cn2c(-c3ccccc3)[n+](C)c3ccccc32)C1` (stereo not given) gave an IFI of 13.1%.
`Cc1cc(-c2cnc(N3CCCC3)nc2C2CCN(Cc3cccnc3)CC2)on1` displayed an IFI of 0%.
With `CC[n+]1ccc(C=Cc2ccc(N(C)C)cc2)cc1` the figure was 10.4%; with `COc1ccc(OC)c(-c2ccc(O)c(CNCCc3ccc(Cl)cc3)c2)c1`, 4.31%.
The compound `Cc1ccn2c(NC(C)(C)CC(C)(C)C)c(-c3ccccc3OC(=O)C(C)(C)C)nc2c1` showed an IFI of 2.73%.
`COc1ccc(/C=C/C(=O)Nc2ccc(S(=O)(=O)N3CCOCC3)cc2)cc1` had an IFI of 0%.
With `O=C(Nc1ccc(C(=O)Nc2ccc(C3=NCCCN3)cc2)cc1)Nc1ccc(C2=NCCCN2)cc1` the figure was 3.51%; with `COCCOC(=O)C1=C(C)NC2=C(C(=O)CC(c3ccc(OC)cc3)C2)C1c1ccc(Cl)cc1` (stereo not given), 4.65%; with `CCOc1cc(C2C(C(=O)OC)=CNC=C2C(=O)OC)cc(Br)c1OCC`, 2.35%.
The result for `CCCCC(CC)C(=O)N(C)CCCNc1ccnc2cc(Cl)ccc12` (stereo not given) reads 3.64%; that for `O=C(O)c1cc([N+](=O)[O-])ccc1Oc1cncc(Cl)c1`, 0.833%.
As to `CCC(NC1CCCCC1)c1nc2ccccc2c(=O)n1C` (stereo not given), the IFI amounted to 2.5%.
`CC1CCCN(c2ccc(C(=O)NC3CC3)cc2[N+](=O)[O-])C1` (stereo not given) yielded an IFI of 0%.
On to `O=C1c2ccccc2-c2nnc(-c3ccccc3)cc21`, for which the IFI is 11%.
`COc1cc(NC(C)CCCN(Cc2ccccc2OC)C(=O)C(C)C)c2ncccc2c1` (stereo not given) gave an IFI of 5.71%.
The result for `O=C(Nc1ccc([N+](=O)[O-])cc1Cl)c1cc(Br)ccc1O` reads 7.69%.
Take `CCN1/C(=C/c2cccc[n+]2C)Sc2ccccc21`: the IFI stood at 7.69%.
Compound `CCOC(=O)c1cnc2ccc(Cl)cc2c1NCCCN(C)C` came in with an IFI of 0%.
The result for `OC(CN1CCN(Cc2ccccc2)CC1)Cn1c2ccc(Br)cc2c2cc(Br)ccc21` (stereo not given) reads 4.08%; that for `COc1ccc(C2=C(c3ccc(OC)cc3)C3C(=O)C2C2C(=O)N(c4cccc5ccccc45)C(=O)C32)cc1` (stereo not given), 0%; that for `COc1cccc(Nc2nc(NCC3CCCO3)c3ccccc3n2)c1` (stereo not given), 0%.
On to `CC(C)C(=O)N1CCOc2c(cc(-c3csc4ccccc34)cc2OCCc2ccccn2)C1`, for which the IFI came out at 1.92%.
With `CCOc1ccc(C2C(C(=O)OC)=CNC=C2C(=O)OC)cc1Cl` the figure was 0%; with `CCCCCCN(C(=O)c1ccc(C(C)(C)C)cc1)C(CC)c1nc2cc(Cl)ccc2c(=O)n1CC` (stereo not given), 1.87%.
`CC(=O)N(Cc1ccc(F)cc1)C1=C(NCc2ccccc2)C(=O)c2ccccc2C1=O` came in with an IFI of 23.1%.
In the case of `CCCn1c(SCC(=O)N2c3ccccc3CC2C)nc2c1c(=O)n(C)c(=O)n2C` (stereo not given), the IFI came out at 3.54%.
With `COc1ccc(N(CC(=O)NCCc2ccc(F)cc2)S(=O)(=O)c2ccccc2)cc1`, the IFI amounted to 0%.
In turn, `O=C(NNC(=O)c1cccc(F)c1)C(=O)N1CCOCC1` showed an IFI of 0%.
